Results: PubChem BioAssay AID488969 (Vanderbilt High Throughput Screening Facility, 2010)
Whole data set: some 110,000 compounds, median “z-score” near -0.1, cut for the highest 2% near 2. The list shows a part of the results. The source made the active and inactive calls.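 How the source made its calls: active means z-score in the third read window above 3 or below -3; inactive means the rest.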

target: Metabotropic glutamate receptor 8 (Rattus norvegicus) (UniProt P70579); test: mGluR8 Gi/Go-coupled signaling modulation – cell-based, rat, thallium flux, HTS, primary screen (AID 488969); settings: HEK293 rat mGluR8, GIRK (G protein-gated inwardly rectifying potassium channel) thallium flux, FluoZin2; at 10 µM; stronger effect = higher value; submaximal glutamate (EC20) added with thallium
Chain of UniProt P70579 (P70579 whole entry, looked up): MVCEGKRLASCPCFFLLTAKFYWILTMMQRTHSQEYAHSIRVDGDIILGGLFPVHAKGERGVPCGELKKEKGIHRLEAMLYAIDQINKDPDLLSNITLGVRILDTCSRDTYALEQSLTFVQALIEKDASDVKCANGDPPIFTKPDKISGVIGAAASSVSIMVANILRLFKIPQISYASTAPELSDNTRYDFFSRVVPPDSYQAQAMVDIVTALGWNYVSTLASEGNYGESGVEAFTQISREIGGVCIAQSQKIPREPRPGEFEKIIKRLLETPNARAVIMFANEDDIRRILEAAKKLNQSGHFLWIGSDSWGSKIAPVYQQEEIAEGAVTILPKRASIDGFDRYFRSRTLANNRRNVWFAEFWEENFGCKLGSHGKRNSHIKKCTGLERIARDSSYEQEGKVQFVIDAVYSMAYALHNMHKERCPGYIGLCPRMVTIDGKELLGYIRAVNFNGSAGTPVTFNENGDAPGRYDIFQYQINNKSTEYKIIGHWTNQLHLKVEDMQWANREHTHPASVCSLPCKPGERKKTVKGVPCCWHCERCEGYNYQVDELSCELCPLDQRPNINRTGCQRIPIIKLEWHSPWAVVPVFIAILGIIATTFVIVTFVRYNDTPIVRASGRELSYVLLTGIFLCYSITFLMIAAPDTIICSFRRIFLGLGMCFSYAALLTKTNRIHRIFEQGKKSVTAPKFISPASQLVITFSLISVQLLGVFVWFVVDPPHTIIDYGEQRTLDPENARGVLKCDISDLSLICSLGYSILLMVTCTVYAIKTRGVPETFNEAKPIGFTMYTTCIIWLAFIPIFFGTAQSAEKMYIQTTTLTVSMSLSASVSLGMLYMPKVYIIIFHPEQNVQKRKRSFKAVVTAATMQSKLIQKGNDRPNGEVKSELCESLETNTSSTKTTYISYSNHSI

Compound | z-score
Cc1ccc(-n2c3c(c(=O)[nH]c2=O)C(C(F)(F)F)(C(F)(F)F)NC(=O)N3)cc1 | 0.799
FC(F)(F)c1cccc(NC(=S)NNC(=S)NCc2ccccc2)c1 | -0.388
CC1(C)OC(=O)C(=NNc2ccc(O)cc2)C(=O)O1 | -0.129
Cc1cccc(-n2cc(-c3ccccc3)c3c(=O)[nH]cnc32)c1 | -0.301
COc1cccc(NC(=O)CN2CCN(S(=O)(=O)c3ccc(C(C)C)cc3)CC2)c1 | -0.697
Cc1cc(C)c(C(=O)C2OC(=O)C(C)(C)C(=O)C2(C)C)c(C)c1 (centres undefined) | 0.0247
COc1ccc(/C=N/NC(=O)c2ccoc2C)cc1O | -0.231
Cc1ccc2oc(C(=O)NCc3ccc4c(c3)OCO4)c(C)c2c1 | -0.338
CCCC(C(=O)NC1CCCC1)N(CCCN1CCOCC1)C(=O)c1snc(C(N)=O)c1N (centres undefined) | -0.289
CCc1nc2ccccc2c(C(=O)OCC(=O)NCc2ccco2)c1C | -1.63
Cc1cc2c(ncn2C)c(NS(=O)(=O)c2ccccc2Cl)c1C | -0.0979
Cc1cccc(CN2CCCC(C(=O)N3CCc4ccccc4C3)C2)c1 (centres undefined) | -0.0704
Cc1ccc2nc(-c3cccc(NS(C)(=O)=O)c3)cc(-c3ccccc3)c2c1 | 0.0171
CCOc1ccc(NC(=O)c2cnsn2)cc1 | -0.149
NC(=O)C1(NC(=O)[C@@H]2CC3(CC(c4cccc(NC(=O)c5cc([N+](=O)[O-])cc([N+](=O)[O-])c5)c4)=NO3)CN2C(=O)c2ccccc2)CC1 (some centres undefined) | 1.45
CCOc1cc(Br)c(Br)c(C=Nc2ccc(NC(C)=O)cc2)c1O | 0.0484
CN1CCN(C(=O)CCNC(=O)Cn2ccc3ccccc3c2=O)CC1 | 0.0853
COC(=O)CNC(=O)C(C)NC(=O)OCc1ccccc1 (centres undefined) | -0.415
COc1ccc(Cl)cc1C(=O)NCc1cnn(C)c1C | -0.509
COc1ccc(C2CC(=O)C3=C(C2)Nc2ccccc2N(C(C)=O)C3c2ccco2)cc1 (centres undefined) | -0.431
O=C(Nc1cccc(-c2cn3ccccc3n2)c1)c1cccc(Cl)c1 | -0.397
COc1ccc(N2CCN(C(=O)c3cc(N4C(=O)C5C6CCC(C6)C5C4=O)ccc3Cl)CC2)cc1 (centres undefined) | -0.324

Compound | z-score
CN(C)CCCN(C(=O)CCc1ccccc1)c1nc2ccc(Cl)cc2s1 | -1.28
Cc1sc2nc(CN3CCOCC3)nc(N3CCOCC3)c2c1C | -0.112
O=C(Cc1cccs1)N/N=C/C(Br)=C/c1ccccc1 | -0.184
Cc1ccc(Sc2ncccc2C(=O)O)cc1C | -0.096
COc1ccc2nc(C)cc(SCC(=O)NNC(=O)COc3ccccc3)c2c1 | -0.135
CC(c1ccc(Br)cc1)N1CC23C=CC(O2)C(C(=O)O)C3C1=O (centres undefined) | -0.566
O=C(O)c1cnn2c(C(F)F)cc(C3CC3)nc12 | 0.114
CCOc1cc(C(=O)NCc2ccncc2)cc(OCC)c1OCC | 1.8
O=C(NCCc1ccccc1)C1CCCN(S(=O)(=O)c2cccs2)C1 (centres undefined) | 0.045
Cc1cccc(C)c1NS(=O)(=O)c1ccc2c(c1)C(=O)c1ccccc1C2=O | -0.146
Nc1c(C(=O)NCC2CCCO2)c2nc3ccccc3nc2n1-c1ccccc1 (centres undefined) | -1.47
COc1ccc(NC(=O)c2cc3sccc3n2Cc2ccc(F)cc2)cc1OC | 0.448
Cc1nc(NCc2ccc3c(c2)OCO3)c2oc3ccccc3c2n1 | -0.964
CCS(=O)(=O)n1nc(-c2ccccc2)cc1N | -0.0144
CC1CCN(c2ccc(NC(=O)c3cccnc3)cc2)CC1 | 0.809
Cc1nn(C)c(Oc2cccc(Cl)c2)c1C(=O)O | -0.288
COc1cccc(NC(=O)C(=O)N2CCOCC2)c1 | 0.557
N#CC1=C(N)c2ccccc2CC12CCCCC2 | 0.165
O=C(c1cccn2c(=O)c3cc(Cl)ccc3nc12)N1CCOCC1 | 0.152
CCNC(=O)/N=C1/NC(=O)C(C(C)C)O1 (centres undefined) | -0.0624
CCCCCCCCS(=O)C1CCS(=O)(=O)C1 (centres undefined) | 0.614
COc1ccc(C(=O)NCc2ccccn2)cc1 | 0.15

Compound | z-score
CCOc1ccc(NC(=O)C2CCCN(C(=O)NCc3ccccc3)C2)cc1 (centres undefined) | 1
O=C1OCc2cc(NC(=O)C3CCCCC3)ccc21 | -0.19
O=C(CCc1nc(-c2ccccc2)c(-c2ccccc2)o1)OCc1ccc(Br)cc1 | -0.201
O=[N+]([O-])c1ccc(Sc2cccc3cccnc23)cc1 | 0.158
Cc1cc(=O)oc(C)c1C(=O)Nc1cccc2nonc12 | 0.794
Cc1c(NC(=O)CCN2C(=O)c3ccccc3C2=O)c(=O)n(-c2ccccc2)n1C | 0.644
COC(=O)c1ccsc1NC(=O)CN1CCN(c2ccc(F)cc2)CC1 | 0.602
CC(=O)C12C3C4C(C5C1C3C5(Br)C41OCCO1)C21OCCO1 (centres undefined) | -0.0274
CCCc1cc(-c2nc(N)ncc2-c2ccc3c(c2)OCCCO3)c(O)cc1OC | 0.524
COc1ccc(S(=O)(=O)N2CCCN(S(=O)(=O)c3ccc(OC)c(C)c3)CC2)cc1C | -0.0209
Brc1c(CSc2nncn2-c2ccccc2)nc2sccn12 | 0.101
COc1ccc(C(=O)N/C(=C/c2cccs2)C(=O)NCCCn2ccnc2)cc1OC | -0.0492
CC1(c2ccccn2)Nc2ccccc2-c2nc3ccccc3n21 (centres undefined) | -0.604
O=C(CN1C(=O)CCS(=O)(=O)c2ccccc21)Nc1ccc2c(c1)OCCO2 | 0.219
Cc1cc(C)c(C(N)=O)c(Nc2cccc(Cl)c2C)n1 | 0.449
O=C(COc1ccc2ccccc2c1)Nc1ccc(Cc2ccncc2)cc1 | 0.0647
Cc1ccc(S(=O)(=O)CC#CCOC(=O)c2ccc([N+](=O)[O-])cc2)cc1 | -0.871
S=C1NC2=C(CCCC2)C2(CCCCC2)N1 | -0.127
CCN(CC)C(=O)c1ccc(S(=O)(=O)N2CCC(c3nc4ccccc4s3)CC2)cc1 | 0.306
CCCCN(C(=O)CSc1nnc(-c2ccc(OC)cc2)n1C(C)C)c1c(N)n(Cc2ccccc2)c(=O)[nH]c1=O | -0.219
O=C(NCc1nc(-c2ccccc2)no1)c1ccc2c(c1)OCO2 | -0.283
O=C(COC(=O)CCSc1ccccc1)NCc1ccccc1Cl | -0.354

Compound | z-score
CC(C)CNc1cc(=O)n(C)c(=O)n1C | 0.383
O=C(Nc1ccccc1)c1ccc(Cn2cc(C(F)(F)F)ccc2=O)cc1 | -0.0968
Cc1ccc(/C=C/c2nnc(-c3cccs3)o2)cc1 | 0.191
CC(C(=O)N1CCN(c2ccc(Cl)cc2)CC1)c1ncc(C(F)(F)F)cc1Cl (centres undefined) | -0.197
COc1ccc(C(=O)n2c(SC)nc3cc4c(cc32)OCCO4)cc1 | -0.848
Cc1ccccc1Cn1c(=O)n(CCCC(=O)NCc2ccco2)c(=O)c2sccc21 | -0.264
O=C(Nc1ccccc1C(=O)N1CCOCC1)C1COc2ccccc2O1 (centres undefined) | 0.436
C/C(=N\NC(=O)c1ccccc1[N+](=O)[O-])c1c(O)cc(C)oc1=O | -0.137
CC(=O)c1c(C)[nH]c(C(=O)CSc2nnc3ccccn23)c1C | -0.0581
CCCCCC(=O)Nc1ccc(N2CCN(S(C)(=O)=O)CC2)cc1 | 0.139
COC(=O)c1sccc1NC(=O)c1cc(-c2cccc(C)c2)nc2ccccc12 | -0.317
NC(=O)c1ccsc1NC(=O)CN1C(=O)C2CC=CCC2C1=O (centres undefined) | 0.552
Cc1nc2ccc(NC(=O)c3ccc(S(=O)(=O)N(C)c4ccccc4)cc3)cc2s1 | -0.562
Cc1cc(C)c(NC(=O)CSc2nc3ccc(NC(=O)CSc4nnnn4Cc4ccccc4)cc3s2)c(C)c1 | -0.271
COC(=O)c1c(N2C(=O)[C@H]3[C@@H](C2=O)[C@]2(C(=O)Nc4c2ccc(C)c4C)N2CCC[C@@H]32)sc(C)c1C | 0.072
CCOC(=O)c1c(NC(=O)CSc2nnnn2-c2ccccc2)sc2c1CCC(C)C2 (centres undefined) | -0.662
CC(C)OCCCNC(=O)C(=O)NCCCOC(C)C | -0.0513
Cc1cccc(C)c1NC(=O)/C(C#N)=C/c1cccs1 | -0.0784
Cc1nn(Cc2ccc(Cl)c(Cl)c2)c(C)c1NC(=O)c1sc2ccccc2c1Cl | -0.213
COc1ccc(NC(=O)COC(=O)c2cc(OC)c(OC)cc2NC(=O)c2ccco2)cc1OC | -0.379
CCc1ccc(NC(=O)CC2C(=O)Nc3c2c(=O)n(C)c(=O)n3C)cc1 (centres undefined) | -0.691
O=C1CCCC2=C1C(c1ccncc1)c1c(nc(SCc3ccccc3)[nH]c1=O)N2 (centres undefined) | -1.55

Compound | z-score
Cc1ccc(S(=O)(=O)c2ccc(Cl)cc2)cc1S(=O)(=O)N1CCN(C)CC1 | 0.436
C1CCCC(N2CCNCC2)CC1 | 0.33
O=C(Cc1ccccc1[N+](=O)[O-])Nc1ccc2c(c1)OCCO2 | -0.115
CCCCNC(=S)N/N=C1\C(=O)c2cccc3cccc1c23 | active: 3.16
CCOC(=O)COc1ccc2ccccc2c1/C=C/[N+](=O)[O-] | 0.0128
O=C(CSc1nc(O)cc(=O)n1-c1ccccc1)NCc1ccccc1 | 0.505
CCNC(=O)CN(c1ccc(OC)c(OC)c1)S(=O)(=O)c1ccccc1 | -0.11
COc1ccc(CCN(C)CCC(=O)Nc2cc(C)ccc2C)cc1OC | -0.105
Nn1c(SCc2csc(-c3ccccc3)n2)nnc1-c1cccs1 | -0.675
COc1ccc(-c2cc(C(F)(F)F)nc(N3CCN(c4ccc(F)cc4)CC3)n2)cc1OC | -0.618
CCOc1cc(C)c(S(=O)(=O)Nc2ccc(Cl)cn2)cc1C | -0.241
CCC(=O)n1nc(-c2ccccc2)nc1N | -0.874
COc1cc2c(cc1OC)CN(C(=O)c1ccc(S(=O)(=O)N3CCCCCC3)cc1)CC2 | -0.698
CCOC(=O)Cc1nnc2c(Nc3ccc(C)cc3)nc3nonc3n12 | -0.777
CCCc1cc(C(N)=O)c(NC(=O)c2ccco2)s1 | -0.478
Clc1cccc(Oc2cnc3ccccc3n2)c1 | -0.105
COc1ccc(OC)c(Nc2nc3nonc3nc2N2CCCCC2)c1 | -0.227
COc1cccc(/C=N/NC(=O)CCc2n[nH]c(=O)[nH]c2=O)c1O | -0.00761
Cc1ccc(N2C(N)=C(C#N)C(c3cccnc3)C3=C2CC(C)(C)CC3=O)cc1 (centres undefined) | -0.318
Cc1cc(N2CCCC2)nc(-c2ccccc2O)n1 | 0.00629
O=C(O)c1cc(/C=N\O)ccc1OCc1ccccc1 | 0.164
